Laboratory results from paper PMC4336329 (PLoS ONE, 2015).
Hit rate of the full screen: of about 310,000 compounds, about 14,000 (4.5%) showed an effect of 50% or more. Effects have a minus sign here. The list shows a part of the results.

These compounds were tested against human ether-à-go-go-related gene (hERG) potassium channel (human, UniProt Q12809) (assay: primary screen, population patch clamp on CHO cells stably expressing hERG).
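Also: peak tail current of the secondary pulse compared with the same well before compound.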

human ether-à-go-go-related gene (hERG) potassium channel, sequence (Q12809 whole entry, looked up): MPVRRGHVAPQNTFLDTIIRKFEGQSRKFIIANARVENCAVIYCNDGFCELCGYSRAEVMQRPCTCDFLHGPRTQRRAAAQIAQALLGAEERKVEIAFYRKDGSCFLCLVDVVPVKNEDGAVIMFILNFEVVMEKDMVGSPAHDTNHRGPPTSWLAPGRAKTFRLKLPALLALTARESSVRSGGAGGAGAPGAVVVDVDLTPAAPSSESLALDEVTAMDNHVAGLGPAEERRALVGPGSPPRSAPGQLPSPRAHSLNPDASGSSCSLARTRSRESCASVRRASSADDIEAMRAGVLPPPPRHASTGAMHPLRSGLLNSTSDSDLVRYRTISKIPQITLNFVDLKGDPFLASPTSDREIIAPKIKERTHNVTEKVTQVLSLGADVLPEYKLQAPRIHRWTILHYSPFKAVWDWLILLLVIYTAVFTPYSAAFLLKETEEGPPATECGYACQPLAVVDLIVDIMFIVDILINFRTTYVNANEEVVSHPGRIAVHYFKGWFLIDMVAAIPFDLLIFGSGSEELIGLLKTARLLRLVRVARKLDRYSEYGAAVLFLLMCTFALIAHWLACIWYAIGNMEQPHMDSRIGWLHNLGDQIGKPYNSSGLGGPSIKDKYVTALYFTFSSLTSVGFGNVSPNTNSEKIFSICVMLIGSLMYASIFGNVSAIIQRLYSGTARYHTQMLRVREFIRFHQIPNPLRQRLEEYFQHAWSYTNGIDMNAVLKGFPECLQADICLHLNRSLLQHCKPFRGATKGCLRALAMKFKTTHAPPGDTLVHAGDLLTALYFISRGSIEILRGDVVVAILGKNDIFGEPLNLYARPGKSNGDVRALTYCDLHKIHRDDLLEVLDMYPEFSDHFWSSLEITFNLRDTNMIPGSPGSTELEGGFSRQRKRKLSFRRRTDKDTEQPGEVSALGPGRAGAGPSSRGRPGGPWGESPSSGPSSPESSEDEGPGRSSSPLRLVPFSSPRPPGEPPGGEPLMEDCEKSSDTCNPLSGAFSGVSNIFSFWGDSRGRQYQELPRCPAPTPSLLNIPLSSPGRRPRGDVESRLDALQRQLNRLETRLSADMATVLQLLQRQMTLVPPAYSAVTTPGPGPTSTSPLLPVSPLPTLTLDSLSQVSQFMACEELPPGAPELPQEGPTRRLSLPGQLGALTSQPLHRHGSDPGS

Row | Structure (SMILES) | hERG current change (%, negative = inhibition) at 10uM [%]
1 | CCCCCCCn1c2c(c(=N)c3ccccc31)CCC2.I | -81.4
2 | CC1(C)CC(=O)C=C(c2ccc(F)nc2)C1 | 9.88
3 | C#CCOCCOCCOCCNc1nc(N2CCOCC2)nc(N2CCN(C(=O)CCCCCCCCCCNC(=O)[C@@H](CCSC)n3cc(CCO)nn3)CC2)n1 | -19.6
4 | CC1CCCN(CCCN2C(=O)C3C(C(=O)Nc4cccc(Cl)c4)C4C=CC3(O4)C2C(=O)NC2CCCCC2)C1 (centres unmarked) | 1.52
5 | CCOC(=O)C(=O)N=Nc1c(O)n(C)c2ccccc12 | 18.9
6 | COc1ccccc1NC(=O)c1ccc(N2CC3CC(C2)c2cccc(=O)n2C3)c(NC(=O)c2ccncc2)c1 (centres unmarked) | 6.49
7 | CC1CCCN(c2ccc(C(=O)Nc3ccc4c(c3)OCO4)cc2[N+](=O)[O-])C1 (centres unmarked) | -2.94
8 | COc1cc(C(=O)Nc2ccccc2N2CCCCC2)cc(OC)c1OC | -6.57
9 | CC(C)C(=O)Nc1ccc(C(=O)NNC(=O)C(c2ccccc2)c2ccccc2)cc1 | -0.323
10 | Cc1sc2ncnc(N/N=C/c3cccc(O)c3)c2c1C | -61.9
11 | COCC(=O)NC(C)c1nc2ccccc2[nH]1 (centres unmarked) | -2.57
12 | CSCCC(NC(=O)c1ccccc1Br)C(=O)Nc1ccc(C)cc1 (centres unmarked) | -3.11
13 | CCOC(=O)COc1ccc([N+](=O)[O-])cc1 | -5.07
14 | CNS(=O)(=O)c1ccc2c3c(cccc13)C(=O)N2 | 9.73
15 | CCCC(=O)C1=C(O)C(C(=O)OC)C(C)(C)CC1=Nc1ccc(OC)cc1 (centres unmarked) | -48.7
16 | CN(CC(=O)Nc1ccccc1Cl)C(=O)CCc1nc2ccccc2c(=O)[nH]1 | -32.2
17 | Cc1ccnc(SCC(=O)c2cccc([N+](=O)[O-])c2)n1 | -5.67
18 | CN(C)C1=NCCN1CCC1CCCCC1 | 0.705
19 | COc1ccc(N2CCN(C(=O)c3cc(C)oc3C)CC2)cc1 | 12.7
20 | c1ccc(CCn2nnnc2C(c2cccs2)N2CCOCC2)cc1 (centres unmarked) | -1.9
21 | COc1ccccc1Oc1cn[nH]c1-c1ccc(OCC(=O)NN)cc1O | 19.9
22 | O=C(CSc1ncc(C(F)(F)F)cc1Cl)N1CCN(S(=O)(=O)c2ccc3ccccc3c2)CC1 | -1.53

Row | Structure (SMILES) | hERG current change (%, negative = inhibition) at 10uM [%]
23 | CCN1C(=O)N[C@H](c2ccc(Br)cc2)C(C(C)=O)=C1C | 5.94
24 | O=C(CSc1nc2cc(Cl)ccc2s1)N1CCN(C(=O)c2ccco2)CC1 | -71.6
25 | Cc1ccc(S(=O)(=O)C2(C(=O)N(C)C3CCCCC3)CC2)cc1 | -3.32
26 | COc1ccccc1NC(=O)C(C)Nc1ccc(C)c(Cl)c1 (centres unmarked) | 6.45
27 | Cc1cc(OCCCC(=O)N2CCCCC2)cc(C)c1Cl | -5.69
28 | COc1cc(/C=N/NC(=O)c2ccncc2)cc2c1OCO2 | 16.2
29 | COCCn1c(N)c(N(Cc2ccccc2)C(=O)c2cc3ccccc3o2)c(=O)[nH]c1=O | 18.1
30 | O=C(CNCC1CCCO1)Nc1ccccc1N1CCOCC1.O=C(O)C(=O)O (centres unmarked) | 14.8
31 | COC(=O)c1sccc1N/N=C(\C)c1ccc(F)c(Cl)c1 | 6.09
32 | CCO[C@H]1OC(C(=O)NC2CC2)=C[C@@H](C2CCCCC2)[C@@H]1CCCO | -21.7
33 | COc1cc(CN2CCCC(C(=O)c3ccc(SC)cc3)C2)cc(Cl)c1O (centres unmarked) | -72.8
34 | O=C(COC(=O)/C=C/c1ccc(C(F)(F)F)cc1)NCCC1=CCCCC1 | 4.39
35 | CC(C)CN(C(=O)CCC(=O)OCc1ccc(Cl)cc1Cl)c1c(N)n(CC(C)C)c(=O)[nH]c1=O | -47.3
36 | Cc1cccc(NC2=NCCCS2)c1C | 15
37 | Cc1ccc(S(=O)(=O)N(C)C)cc1NC(=O)COC(=O)C1COc2ccccc2O1 (centres unmarked) | 7.22
38 | O=C1c2ccccc2C(=O)C12OC2c1cccc2ccccc12 (centres unmarked) | -69.2
39 | O=C(Cn1nnc2ccccc2c1=O)NCCc1ccc(Cl)cc1Cl | -7.66
40 | CCOC(=O)c1ccc(Oc2nc(N(C)C)nc(N(C)C)n2)cc1 | 10.3
41 | CCCc1cc(=O)n2nc(N3CCC(C(=O)Nc4cccc(C(C)=O)c4)CC3)sc2n1 | 6.07
42 | CC1CCN(C(=O)c2ccc3ccccc3c2)CC1 | 7.46
43 | Cc1nonc1OCCNC(=O)C12CC3CC(CC(C3)C1)C2 | -9.87
44 | CCn1c(SC(C)C(=O)N2CCOCC2)nc2sc(C)c(C)c2c1=O (centres unmarked) | 3.37

Row | Structure (SMILES) | hERG current change (%, negative = inhibition) at 10uM [%]
45 | O=C(O)C1CCN(C(=O)CCc2ccccc2)CC1 | 4.94
46 | COC(=O)N/C(C)=C1/NC(=O)c2ccccc2C(c2ccccc2)N1 (centres unmarked) | -20.5
47 | CCN(CC)Cc1c(O)ccc2cc(-c3nc4ccccc4n3C)c(=O)oc12 | 8.83
48 | N#Cc1nc(COc2ccccc2Cl)oc1N1CCCC1 | -32.9
49 | CCCCCCCSc1nc(N)cc(=O)[nH]1 | 8.28
50 | O=C(O)C(CCCCN1C(=O)C2C3C=CC(C3)C2C1=O)N1C(=O)C2C3C=CC(C3)C2C1=O (centres unmarked) | 2.41
51 | CC(C)N1C/C(=C/c2ccsc2)C(=O)/C(=C/c2ccsc2)C1 | -47.4
52 | O=[N+]([O-])c1ccccc1CN1CCN(Cc2ccccn2)CC1 | 2.42
53 | CC(CCc1ccccc1)NC(=O)CSc1nccc(=O)[nH]1 (centres unmarked) | 4.96
54 | Cc1cc(C)n2nc(SCC(=O)c3c(N)n(CC(C)C)c(=O)n(C)c3=O)nc2n1 | -18.6
55 | Cc1ccc(CC(=O)NCc2ccc3c(c2)OCO3)cc1 | 2.24
56 | c1cn2c(Nc3ccc4c(c3)OCCO4)c(-c3ccc(N4CCOCC4)cc3)nc2cn1 | -26.1
57 | CCOc1ccc(-n2c(C)nc(O)c2N=Nc2ccccc2)cc1 | 13.6
58 | CCOCCCNC(=O)CN1C(=O)CSc2cc(S(=O)(=O)N3CCCCCC3)ccc21 | -13.1
59 | Cc1ccc(C)c(N2C(=O)c3ccc(C(=O)OCC(=O)c4c(N)n(C)c(=O)n(C)c4=O)cc3C2=O)c1 | -19.9
60 | Cn1nc(C(=O)OCC(=O)Nc2ccc(S(N)(=O)=O)cc2)c2ccccc2c1=O | 15.3
61 | CCC1=NN=C(c2ccc(F)cc2)C(c2c[nH]c3ccccc23)N1O (centres unmarked) | 0.967
62 | CN1CCC(=O)N(CCOc2ccccc2)CC1 | 19.4
63 | COC(=O)CC(NC(=O)Nc1ccc(C)cc1)c1cccc([N+](=O)[O-])c1 (centres unmarked) | -9.1
64 | O=C(CCOc1ccccc1)Nc1ccc(Br)cc1 | 13.6
65 | Cc1ccc(OCC(=O)N2CCCCCCC2)cc1C | -4.47
66 | S=c1[nH]nc(COc2ccccc2)n1/N=C/c1c(Cl)cccc1Cl | 24.1

Row | Structure (SMILES) | hERG current change (%, negative = inhibition) at 10uM [%]
67 | COc1ccccc1CC(NC(C)=O)C(=O)NC1CCN(C(=O)Nc2ccc(F)cc2)CC1 (centres unmarked) | -1.82
68 | O=C(C[n+]1cccc(O)c1)NCc1ccc(Cl)cc1.[Cl-] | 24.2
69 | O=Cc1ccccc1-n1cccn1 | 12.5
70 | O=C(OCC1O[C@@H](OC(=O)c2cc(O)c(O)c(O)c2)[C@@H](OC(=O)c2cc(O)c(O)c(O)c2)[C@@H](OC(=O)c2cc(O)c(O)c(O)c2)[C@@H]1OC(=O)c1cc(O)c(O)c(O)c1)c1cc(O)c(O)c(O)c1 (some centres unmarked) | 33.9
71 | COc1cccc(NC(=O)CSc2nnc(Cn3nnc4ccccc43)n2C)c1 | -11.7
72 | O=C(Nc1ccc(Cl)cc1C(=O)N1CCOCC1)c1cccc([N+](=O)[O-])c1 | -12.1
73 | CCOC(=O)CSc1nc2c(sc(=S)n2CCc2ccccc2)c(=O)n1Cc1ccco1 | 2.54
74 | CCOC(=O)c1c(C)[nH]c(C)c1C(=O)CSc1nnc(-c2ccncc2)n1Cc1ccccc1 | -46.6
75 | CCCCn1c(SCC(=O)Nc2cc(C)[nH]n2)nc2ccsc2c1=O | 7.3
76 | FC(F)(F)c1cccc(N2CCC(N=CN3CCCCCC3)=N2)c1 | -21.2
77 | Cc1ccc(C)c(N2CCN(S(=O)(=O)c3ccc4c(c3)C(C)(C)C(=O)N4C)CC2)c1 | 3.88
78 | COc1ccc(NC(=O)N(Cc2cc3cc(OC)ccc3[nH]c2=O)CC2CCCO2)cc1 (centres unmarked) | -31.6
79 | CCN1C(=O)c2cccc3c(NC(=O)c4ccc(S(=O)(=O)N5CCOCC5)cc4)ccc1c23 | -2.38
80 | S=c1[nH]nc(-c2ccccc2)n1/N=C/c1ccc(-c2ccccc2Cl)o1 | 25.4
81 | Cc1ccc(CSCCNC(=O)CSCc2ccc([N+](=O)[O-])cc2)cc1 | -71.4
82 | CC(OC(=O)c1cc(=O)[nH]c2ccccc12)C(=O)NC1CCCCC1C (centres unmarked) | 5.83
83 | O=C(NNS(=O)(=O)c1ccc(F)cc1)c1cc2ccccc2cc1O | 12.6
84 | Cc1ccc(-c2ccc(C(=O)O)o2)cc1Cl | 15.7
85 | O=C(NCC1CCCN(C(=O)c2cscn2)C1)c1ccccc1Cl (centres unmarked) | 13.3
86 | COc1ccc(NC(=S)N(CCC(C)C)C2CCN(C(C)=O)CC2)cc1 | 18.9
